Test results from paper PMC12136788.
The other results are listed elsewhere or left out.

T1: UNK ZnF1-3 (human, UniProt Q9C0B0 31-174)
T1 sequence: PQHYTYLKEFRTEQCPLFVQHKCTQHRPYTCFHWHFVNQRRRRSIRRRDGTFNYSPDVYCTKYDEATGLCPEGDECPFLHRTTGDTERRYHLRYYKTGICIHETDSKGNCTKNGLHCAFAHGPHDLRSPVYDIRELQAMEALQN

B1: chr9:128199989:128199990:-_ENSG00000119487_ENST00000373498|hu_hu|FALSE|FALSE (ssRNA)
RNA: GGGAGUUCUACAGUCCGACGAUCUUUAAGAUGCUGUUUUAGACACAUCUCUUCCUGUACAACAAUUUAAAAAAUGUUUCUAAUGCAGGUCCUCAGUGAAACACCGGUCCCCGGCCCUGGCUGGGGACAGUAAGGACAUCACCGCAACAGAGGAUUGAGCAUCA
B2: chr1:46073211:46073212:+_ENSG00000132780_ENST00000537798|hu_hu|FALSE|FALSE (ssRNA)
RNA: GGGAGUUCUACAGUCCGACGAUCAGUGACCUCAGCUUCAUUCGGUCCUUCUGGUGCUGCUCCUCCUUUUGCCUCUUCAGAGGUUUCAGUUAACCAAUCUAGAGUCAAGUCAACUUUUUCCUGUGGCUCCUCUGCAGAUUUACUCAACAGAGGAUUGAGCAUCA
B3: 56049922_56051489_482_CDS_ENSG00000146729_ENST00000322090|human|control|control (ssRNA)
RNA: GGGAGUUCUACAGUCCGACGAUCCUCCAACAGGAGCUGAUUCUUCCUGGAGAGAAGCAUGUCACUUCUUGCCUUACGAAAUUCCAAAAAUUCCUUAUUUUCUCUGAGUUUAUUCAUGACUUCUGUGAGGGCUGGAUAGCCUCCCAACAGAGGAUUGAGCAUCA
B4: 48629498_48633178_713_3pUTR_ENSMUSG00000031568_ENSMUST00000033973|mouse|control|control (ssRNA)
RNA: GGGAGUUCUACAGUCCGACGAUCCCCAGUUCCAGCCGCGAGGCAGCUCCCCUUUGUGAUCUGUUUUAUCUGCCAGCUUGCGUUUCUGAGCUUUGGAAAGUUGUUCUUUCUUCUCUUUUUUCUUACUUGAUGGGGCUGUGGUGGCAACAGAGGAUUGAGCAUCA
B5: chr3:176767854:176767855:-_ENSG00000177565_ENST00000430069|hu_hu|hu_hu_hu_mus_False|8_68 (ssRNA)
RNA: GGGAGUUCUACAGUCCGACGAUCGACAUCCUUGUUACUGGGCACGUCCUGCCCUCCUUCCCGUAUGCAAUGUCUAAGCACGAGCUGCGUAGGGCCACUCGUGCUGUUCUCACUGAGGUUCCAGAUUCUUGCUGUUGAGUCUCCCAACAGAGGAUUGAGCAUCA
B6: 4766894_4768318_1029_3pUTR_ENSG00000101265_ENST00000379400|human|control|control (ssRNA)
RNA: GGGAGUUCUACAGUCCGACGAUCACUUCCCGAUCUUCUUCCUCCUGGAGCUUCUGAAUGAAGCUUUUAAGUACCGGCAUCUCGAACUUUAUAUACUGGGCCACGUCGUAGGUGACUUCCUCCACCUGGUCCUUCUCCAUUAGGCAACAGAGGAUUGAGCAUCA
B7: chrX:71549400:71549401:+_ENSMUSG00000019087_ENSMUST00000019231|mus_hu|mus_mus_mus_hu_False|1_98 (ssRNA)
RNA: GGGAGUUCUACAGUCCGACGAUCGCAGUAGGAAGAGCAAACCUUUCCAGUCCAGUGCGCUGCAGGGUGGGAAAGCAACAACACGGACACCGUCCCACCCUCAACCCCCCCACUGGCACAGGGUCACACAAUCUGGGAAGUGAUCAACAGAGGAUUGAGCAUCA
B8: chr11:46405157:46405158:+_ENSG00000110492_ENST00000395566|hu_hu|hu_hu_hu_mus_False|1_58 (ssRNA)
RNA: GGGAGUUCUACAGUCCGACGAUCCCCUCCCCACUUUGGGCACUUGGUGUGGGCGUGAGAGGACAGGCGUGAUUGACAAAGCUAACGGGAAGACAAAAGGCACUGGUGGGUUAUAUCUUGGGCCUGUGGGAGAGGAGGCGUGGGCAACAGAGGAUUGAGCAUCA
B9: chr7:75932113:75932114:+_ENSG00000106211_ENST00000248553|hu_hu|hu_hu_hu_mus_False|8_78 (ssRNA)
RNA: GGGAGUUCUACAGUCCGACGAUCCUGCGACCACUCAUCGGGCAACCGGGGCACCCCGAAGGCCUGGUCGAAGAGGCGGCUGUGUGCAGGGUACCAGUCCCGGAAUGGUUCCCAGCUCGGGCUCCGCAGCGAGAAGGAGGGCACCAACAGAGGAUUGAGCAUCA
B10: chr9:14812383:14812384:-_ENSMUSG00000031934_ENSMUST00000164273|mus_mus|mus_mus_mus_hu_True|28_88 (ssRNA)
RNA: GGGAGUUCUACAGUCCGACGAUCAUAGCCCAGGUAGAUACACGCUAACAGUAUAACGAUGAGUGUCAGCAGGCGGCAGCUAAUGUACUUGAUGAUUAAAUUAUUAGAGUUCUUUUUUGUCUUCAAGUACUGCUCCACAAUUGGCAACAGAGGAUUGAGCAUCA
B11: chr11:4127340:4127341:+_ENSG00000167325_ENST00000300738|hu_mus|hu_hu_hu_mus_False|28_68 (ssRNA)
RNA: GGGAGUUCUACAGUCCGACGAUCGGCAUAGUCAGGGUGCUUCGUGGUCAAGGUCGCGGCUGUCUCAGCAGCCAAAGUGUCCAGUUCCACUGUGGUGACCCCACUAUACAAGCCUUGGAUUACUUUCAUGGUGAUCUGAGCAGGCAACAGAGGAUUGAGCAUCA
B12: chr12:39763582:39763583:-_ENSG00000139116_ENST00000544797|hu_mus|hu_hu_hu_mus_False|1_68 (ssRNA)
RNA: GGGAGUUCUACAGUCCGACGAUCCUCUAGGAACUGGGCAUUCACUUUGAAUUCAGGAGGGGGCAGCCCAUUUUUAAUCGCUGAGGUCUUUUUCUCAUCAAUACUCUUGAACAGGUGUCUAACAGCACGAGAGAUGAUACCCAGCAACAGAGGAUUGAGCAUCA
B13: 42222960_42223080_2227_3pUTR_ENSMUSG00000037287_ENSMUST00000125995|mouse|control|control (ssRNA)
RNA: GGGAGUUCUACAGUCCGACGAUCUAUGCGAUAAAGCUGUCAGGAAGUACAUUCAUUGAACAUGAAGAAAAAACCCCUAGAACAGGACGAGUGCCAGGUGACGGGAGUGACAGCUGAUCUACCCUGGAGGGGCUCCUGGGGCGCCAACAGAGGAUUGAGCAUCA
B14: chr17:64801638:64801639:+_ENSG00000154229_ENST00000413366|hu_mus|hu_hu_hu_mus_False|58_78 (ssRNA)
RNA: GGGAGUUCUACAGUCCGACGAUCUAUAUAUAUAUAUACAUAUGUACACAUAUAUAGUAAGAGCCUAGUUAAACGUGUAAACUAGCCAUUCAUUUUUAAAAUUACAUCUACAUUAAAAAAUUAAUAUAUCUGAUAGAGUGCCAGCAACAGAGGAUUGAGCAUCA
B15: 77256043_77256163_1379_CDS_ENSG00000127947_ENST00000248594|human|control|control (ssRNA)
RNA: GGGAGUUCUACAGUCCGACGAUCUGGAUGGUAUCUAUCAUUGUCCUGCCACACAGUAGUGACUGUUGGAAAAGCUGAAGGGGGAGAAGGUGUCAAGAUGGGUGGCACUGGAUGAGGUUCCGGUGGCUGCAGUAUUUCUUCUUUCAACAGAGGAUUGAGCAUCA
B16: chrX:153670519:153670520:+_ENSG00000203879_ENST00000447750|hu_hu|motif|central (ssRNA)
RNA: GGGAGUUCUACAGUCCGACGAUCAGCCGGCUCCACCUCCUUUUCAGGGUCCGUGGUCUCCACAGUAGUGCUGGCAAUAGCGGUGUACUUGCCCUGGGCCGCCACGUUGUGUGCAUAGGAGAUCAUGCACACGUAGAUGUCUGACAACAGAGGAUUGAGCAUCA
B17: chr1:220276048:220276049:+_ENSG00000067704_ENST00000302637|hu_hu|hu_hu_hu_mus_True|48_98 (ssRNA)
RNA: GGGAGUUCUACAGUCCGACGAUCGCAAAUUGCCUGGUUGGCUGGAAUUGUCCAAGGCUGGGUGGUCCAAACUAAAACGCUAACAGGAGAUGAACCAUCUGUAAGAGACUCCAACUUCGGAGGAGGUCUCAGGAGGGGGAAUCUCAACAGAGGAUUGAGCAUCA
B18: chr12:16048344:16048345:+_ENSG00000023734_ENST00000419869|hu_hu|hu_hu_hu_mus_True|1_38 (ssRNA)
RNA: GGGAGUUCUACAGUCCGACGAUCAGAUCGUCCAUAAGUAAUAACCAAAAUCUCUCCUUCAGGAAUAUACUCCAUGCUGCUAACAGACAUAUUAAAAUUUAGAGAUUUCACUUCUGUCAUUGUGGCAUGAUCCCAGAGUCGAACCAACAGAGGAUUGAGCAUCA
B19: chr7:149068622:149068623:-_ENSMUSG00000025139_ENSMUST00000001950|mus_hu|mus_mus_mus_hu_False|88_108 (ssRNA)
RNA: GGGAGUUCUACAGUCCGACGAUCGUGCAGGUACUGAGUGUGGCUUGUGCUCUGCAGUGGGUUAGAGUUGUUAAUAUCACGGAACAUACCAUCUAGAACGUUCCAGUCCCGCCUGACACCUUCAUUCCCAAUGGAGAAGAAAUCCAACAGAGGAUUGAGCAUCA
B20: 24593305_24594397_368_CDS_ENSMUSG00000019984_ENSMUST00000092646|mouse|control|control (ssRNA)
RNA: GGGAGUUCUACAGUCCGACGAUCUAUCAAAGAUUCACAAACCAUCCUGGGUGGAAGGAGACCAGUCUCAACUGCCAUUGCUAAGCAGUCAUAGAGGAAAGAAAUUCUUUUGGGGCUGUGUUGGCCAUGAAUAAAUUUAACAAUCAACAGAGGAUUGAGCAUCA
B21: chr14:76904568:76904569:+_ENSMUSG00000022010_ENSMUST00000022587|mus_mus|motif|central (ssRNA)
RNA: GGGAGUUCUACAGUCCGACGAUCGUUUUCGGUUCCCAGCAAAGACGACAAGAAAGAAAUGGAAAAAUGUCUCAGUUGGUAAACUCCGGGAUCCAUCGCCACUGGUCUACACCAUUGGGAUUUCAUGCAAUUGCAGCCAAAUUACAACAGAGGAUUGAGCAUCA
B22: chr1:225611761:225611762:-_ENSG00000143815_ENST00000272163|hu_mus|hu_hu_hu_mus_True|98_98 (ssRNA)
RNA: GGGAGUUCUACAGUCCGACGAUCCCAGGCCAUCGGCCUCUUACCACUUCACCCUCAACAAACUUCCUACUUGGCAUUUUCUAAAAUUAGUCUGGCCGCGCUCCGGCGGGAACUCCAGCCACUCCAGGACAGUCACCAGCAGCCCAACAGAGGAUUGAGCAUCA

Each binder was assayed against T1, UNK ZnF1-3 (assay: nsRBNS (natural sequence RNA bind-n-seq); RBNS binding buffer (assumed for nsRBNS): 25 mM Tris pH 7.5, 150 mM KCl, 3 mM MgCl2, 0.01% Triton X-100, 500 ug/ml BSA, 20 U/ml SUPERase-In, 4 C; UNK is unkempt and MSI1 is Musashi-1; names of the RNAs are library labels; protein concentration not given here; high values mean tight binding).

**Q.** B1 was tested. Which binding signal did it give?
**A.** Its binding signal is 0.643 enrichment R.

**Q.** How did the binding signal turn out when B2 was run?
**A.** The binding signal was 0.657 enrichment R.

**Q.** B3 was tested. Which binding signal did it give?
**A.** Its binding signal is 0.601 enrichment R.

**Q.** Which binding signal does the source give for B4 here?
**A.** Its binding signal is 0.473 enrichment R.

**Q.** Which binding signal does the source give for B5 here?
**A.** Its binding signal is 0.522 enrichment R.

**Q.** With B6 as the binder, how does the binding signal read?
**A.** Its binding signal is 0.76 enrichment R.

**Q.** For B7, which binding signal is on record?
**A.** The binding signal was 1.13 enrichment R.

**Q.** B8 was tested. Which binding signal did it give?
**A.** Its binding signal is 2.96 enrichment R.

**Q.** With B9 as the binder, how does the binding signal read?
**A.** Its binding signal is 1.08 enrichment R.

**Q.** Which binding signal does the source give for B10 here?
**A.** Its binding signal is 1.48 enrichment R.

**Q.** B11 was tested. Which binding signal did it give?
**A.** Its binding signal is 0.92 enrichment R.

**Q.** Which binding signal does the source give for B12 here?
**A.** Its binding signal is 1.43 enrichment R.

**Q.** With B13 as the binder, how does the binding signal read?
**A.** Its binding signal is 1.23 enrichment R.

**Q.** How did the binding signal turn out when B14 was run?
**A.** Its binding signal is 1.76 enrichment R.

**Q.** B15 was tested. Which binding signal did it give?
**A.** The binding signal was 1.05 enrichment R.

**Q.** How did the binding signal turn out when B16 was run?
**A.** Its binding signal is 1.14 enrichment R.

**Q.** With B17 as the binder, how does the binding signal read?
**A.** The binding signal was 1.25 enrichment R.

**Q.** B18 was tested. Which binding signal did it give?
**A.** Its binding signal is 1.26 enrichment R.

**Q.** Which binding signal does the source give for B19 here?
**A.** Its binding signal is 0.813 enrichment R.

**Q.** How did the binding signal turn out when B20 was run?
**A.** Its binding signal is 1.59 enrichment R.

**Q.** Which binding signal does the source give for B21 here?
**A.** Its binding signal is 1.36 enrichment R.

**Q.** For B22, which binding signal is on record?
**A.** Its binding signal is 1.33 enrichment R.
